# According to paper PMC6919601, “Identification of Plasmodium dipeptidyl aminopeptidase allosteric inhibitors by high throughput screening” (PLoS ONE, 2019):
# Among all 110,000 compounds or so, about 230 (0.21%) showed an effect of 50% or more. Some of the results follow.
# Biological target: DPAP1 (Plasmodium falciparum, UniProt Q8IIJ9)
# Assay: primary screen, percent inhibition; read by cleavage of a fluorogenic dipeptide substrate; higher = more effect of the substance
# Design: species or system P. falciparum D10 trophozoite lysates; single well
# 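Note: 30 min substrate incubation versus DMSO and 10 µM JCP410 controls.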
# DPAP1, sequence (Q8IIJ9 whole entry, looked up): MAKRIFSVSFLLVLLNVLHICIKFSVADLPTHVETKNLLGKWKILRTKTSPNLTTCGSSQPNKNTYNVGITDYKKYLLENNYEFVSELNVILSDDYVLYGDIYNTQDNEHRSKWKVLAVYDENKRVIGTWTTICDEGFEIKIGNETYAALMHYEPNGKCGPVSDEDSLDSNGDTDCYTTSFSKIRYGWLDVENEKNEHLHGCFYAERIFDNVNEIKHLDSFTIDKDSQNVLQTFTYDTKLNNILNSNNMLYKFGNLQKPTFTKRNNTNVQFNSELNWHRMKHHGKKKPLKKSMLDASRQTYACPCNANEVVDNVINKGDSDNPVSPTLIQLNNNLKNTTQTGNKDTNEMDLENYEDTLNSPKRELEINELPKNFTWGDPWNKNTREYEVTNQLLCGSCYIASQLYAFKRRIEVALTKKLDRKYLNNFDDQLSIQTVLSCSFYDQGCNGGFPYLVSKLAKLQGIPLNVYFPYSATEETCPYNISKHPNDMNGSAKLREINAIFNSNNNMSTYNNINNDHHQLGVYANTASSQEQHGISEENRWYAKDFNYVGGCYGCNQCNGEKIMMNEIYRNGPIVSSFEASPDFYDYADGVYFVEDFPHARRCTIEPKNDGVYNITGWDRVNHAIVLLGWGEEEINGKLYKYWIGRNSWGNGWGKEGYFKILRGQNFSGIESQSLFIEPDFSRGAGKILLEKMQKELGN
row,Structure (SMILES),% Inhibition @ 10 uM [%]
1,O=S(=O)(Nc1cc(Cl)c(Cl)cc1Cl)c1ccc(Cl)cc1,3.85
2,O=C(O)CCCn1cc(NC(=O)c2cccc(F)c2)cn1,-5.96
3,CSc1ccccc1C(=O)Nc1cccc(C)n1,-3.63
4,COc1ccc(C2=NN(CC(=O)NC3CCCCC3C)C(=O)CC2)cc1 (stereo not shown),-0.0542
5,Cc1c2c(nc3c(C(=O)NCc4ccccc4)cnn13)CCCC2,4.47
6,CSc1ccc(CN2CCN(Cc3ccc(C)cc3)CC2)cc1,2.45
7,Cn1c(=O)[nH]c(=O)c2c1nc(NCc1ccccc1)n2CC(O)COc1cccc2ccccc12 (stereo not shown),1.67
8,CCCN1CCC(NC(C)COC)CC1 (stereo not shown),-0.0908
9,Cc1cccc(CNC(=O)CCC(=O)N2CCSc3ncccc32)c1,1.05
10,O=C(CCn1cccc1)NCCc1ccc(Cl)cc1,-6.09
11,COc1ccccc1C1(CCC(=O)O)CCC(=O)NC1=O (stereo not shown),-0.551
12,Cc1c(C(=O)N2CCOCC2)[nH]c2c1C(=O)CC(c1ccc(Cl)cc1)C2 (stereo not shown),8.4
13,CCCc1nnc2n1C(C)(C)Cc1ccccc1-2,3.61
14,COc1ccc(NC2CC(=O)N(c3cccc(OC)c3)C2=O)cc1 (stereo not shown),3.05
15,COc1ccc(NC2=Nc3ccccc3CCC2)cc1,-1.06
16,C=C1OC(=O)OC1(C)Cc1ccccc1 (stereo not shown),-2.19
17,CN(Cc1cnn(-c2ccccc2)c1)S(=O)(=O)c1csc(C(N)=O)c1,-8.67
18,Cc1ccccc1S(=O)(=O)Cc1ccc(C(=O)NCc2cccnc2)o1,2.14
19,COc1ccc(NC(=O)C2CCCO2)c(OC)c1 (stereo not shown),-5.13
20,CC(=O)OC(C#CBr)c1ccccc1 (stereo not shown),-5.5
21,Cc1ccc(S(=O)(=O)Nc2cccc(NS(=O)(=O)c3ccc(C)cc3)n2)cc1,0.632
22,CC(C)C(Nc1c2ccccc2nc2ccccc12)C(=O)O (stereo not shown),1.74
23,CCCCC1=NN(C(=O)c2ccccc2OC)C(O)(C(F)(F)F)C1 (stereo not shown),0.673
24,COC(=O)c1ccc(Cn2nc(C)c(Cl)c2C)cc1,-1.33
25,N#Cc1ccc(-c2cc(C(=O)O)c3c(ccc4ccccc43)n2)cc1,3.25
26,O=C(OC1C(C2COC3(CCCCC3)O2)OC2OC3(CCCCC3)OC21)c1ccccc1 (stereo not shown),1.81

row,Structure (SMILES),% Inhibition @ 10 uM [%]
1,NC(=O)Cn1c(=O)n(Cc2ccc3c(c2)OCO3)c(=O)c2cccnc21,-1.66
2,COc1cc(/C=C2\SC(N3CCN(CCO)CC3)=NC2=O)ccc1OCc1ccccc1,9.86
3,COc1ccc(-c2cc(C)no2)cc1S(=O)(=O)NCc1cccc(C)c1,3.24
4,CC1CCCCC1NC(=O)c1cnn2c(C(F)(F)F)cc(-c3ccccc3)nc12 (stereo not shown),2.9
5,OC1(c2ccccc2)c2ccccc2-c2ncccc21 (stereo not shown),-4.67
6,Cc1ccc(-n2c(S)nnc2-c2ccc(Cl)cc2)cc1,3.01
7,COc1cc(/C=C/c2ccc3cccc(OC)c3n2)cc2c1OCO2,2.49
8,O=C(COc1ccc(Cl)cc1Cl)N1CCCCCC1,4.57
9,O=C(O)c1ccccc1N1C(=O)c2ccc([N+](=O)[O-])cc2C1=O,-10.8
10,CCOC(=O)C1=C(c2ccccc2)OC(N)=C(C#N)C1c1ccc(OC)c(CSc2ccccn2)c1 (stereo not shown),7.04
11,Cc1ccc(NC(=O)Nc2ccccc2C#N)cc1NC(=O)Nc1ccccc1C#N,-3.66
12,CC(=O)N/C(=C\c1ccccc1)C(=O)NC(C)c1ccccc1 (stereo not shown),-0.744
13,CN1CCN(c2nc(-c3ccc(C(=O)NC4(C(=O)N[C@@H](CCc5ccccc5)C(O)c5nc6ccccc6o5)CCCCC4)cc3)cs2)CC1 (stereo partly shown),-1.5
14,O=C(CSc1nnc2sc3ccccc3n12)Nc1nc2c(s1)CCCC2,-1.11
15,COc1ccccc1-n1c(O)cc(=O)nc1SC,3.48
16,COc1ccc(CNC(=O)c2csc3ccccc23)cc1,2.05
17,CCCOc1nc2c(Cl)cccc2s1,2.65
18,Cc1cc(C)nc(NS(=O)(=O)c2ccc(NC(=O)c3cccs3)cc2)n1,-0.000375
19,Cc1ccc(C2C(C#N)=C(N)Oc3c2c(=O)n(C)c(=O)n3C)cc1 (stereo not shown),0.317
20,Cc1cccc(-c2cc(C(=O)NCCN3CCOCC3)c3ccccc3n2)c1,-1.1
21,Cc1oc(-c2cccc(Cl)c2)nc1CS(=O)(=O)CC(=O)NCCN1CCOCC1,-2.92
22,COc1ccccc1CNC(=O)CN1C(=O)C2C3C=CC(C3)C2C1=O (stereo not shown),5.11
23,CC1NCCc2c1[nH]c1ccccc21 (stereo not shown),3.47
24,C=C(C)Cn1c(Cc2ccccc2)nc2ccccc21,-7.83
25,OC(CN1CCOCC1)Cn1cnc2ccccc21 (stereo not shown),2.77
26,CC(=O)c1c(O)c2cccc3c2n(c1=O)CC3,0.5
